Test results as given in PubChem BioAssay AID1030 (National Center for Advancing Translational Sciences (NCATS), 2008).
About 16,000 (7.3%) of roughly 220,000 compounds were called active. This list was built around the results that the source calls inconclusive (neither active nor inactive); the mix of calls is not that of the screen. The call rests on the fitted dose curve; in most records, active means well fitted inhibition curve with a large enough effect (not every such curve was filed as active); inconclusive means small, poorly fitted or top-dose-only effect, or another doubt; inactive means no such curve, though single readings can be large or run the other way. Potencies of inconclusive entries are left out as doubtful fits.

molecular target: Aldehyde dehydrogenase 1A1 (Homo sapiens) (UniProt P00352); assay: qHTS Assay for Inhibitors of Aldehyde Dehydrogenase 1 (ALDH1A1); details: Purified ALDH1A1, NADH fluorescence, propionaldehyde substrate; series mostly up to 75.3 µM; activity, negative = inhibition: at the top concentration;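 on activity, negative = inhibition: plate controls were no enzyme wells and a reference inhibitor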
Potency means the concentration at half of the fitted maximal effect; tags describe the fitted curve by direction and shape.

Sequence of UniProt P00352 (P00352 whole entry, looked up): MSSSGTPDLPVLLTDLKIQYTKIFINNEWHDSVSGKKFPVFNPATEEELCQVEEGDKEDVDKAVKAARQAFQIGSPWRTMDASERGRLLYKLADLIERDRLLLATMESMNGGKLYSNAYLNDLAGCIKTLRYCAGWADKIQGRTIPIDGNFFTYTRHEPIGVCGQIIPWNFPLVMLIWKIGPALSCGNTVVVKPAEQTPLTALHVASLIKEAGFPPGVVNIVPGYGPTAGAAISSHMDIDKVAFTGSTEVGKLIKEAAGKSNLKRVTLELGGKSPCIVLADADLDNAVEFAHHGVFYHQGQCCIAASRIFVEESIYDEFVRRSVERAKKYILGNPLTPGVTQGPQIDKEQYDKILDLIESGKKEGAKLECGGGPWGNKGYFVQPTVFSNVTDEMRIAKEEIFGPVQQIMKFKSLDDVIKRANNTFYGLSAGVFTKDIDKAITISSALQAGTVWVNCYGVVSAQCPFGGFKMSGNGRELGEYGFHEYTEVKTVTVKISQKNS

Row | Compound | Potency | activity, negative = inhibition
1 | CN(C)c1ccc(P(=O)(OCc2ccccc2)C(O)c2ccccc2F)cc1 (stereo unspecified) | inconclusive [inhibitor, partial curve] | 
2 | COCCCNC(=O)CNC(=S)N(Cc1ccccc1F)C1CCCCC1 | active: 14.1 µM | 
3 | O=C1c2ccccc2C(=O)c2c(NCCCN(CCO)CCO)cccc21 | inconclusive [inhibitor, single point] | 
4 | CCc1ccccc1NC(=O)c1nnn(CC(=O)Nc2cccc(C)c2C)c1N | inconclusive [inhibitor, single point] | 
5 | CCN(CC)S(=O)(=O)c1ccc(/C=C/C(=O)OCC(=O)NCc2ccc3c(c2)OCO3)cc1 | inconclusive [inhibitor, partial curve] | 
6 | Fc1ccccc1CSc1nnnn1-c1ccc2c(c1)OCO2 | inconclusive [inhibitor, partial curve] | 
7 | Cc1nc2nc[nH]n2c(=O)c1NS(=O)(=O)c1ccc(C(C)(C)C)cc1 | inconclusive [inhibitor, single point] | 
8 | O=c1c2cn[nH]c2[nH]c(=S)n1-c1ccccc1Cl | inconclusive [inhibitor, single point] | 
9 | Cc1nc(NCC2CCCO2)nc2c1C(=O)CC(C)C2 (stereo unspecified) | inconclusive [inhibitor, partial curve] | 
10 | Brc1cccc(CNc2nc3ccccc3n2CCN2CCOCC2)c1 |  | inactive: 8.39%
11 | Cc1ccc(C)n1-c1ccc(C(=O)NN)s1 | active: 14.1 µM | 
12 | CCOC(=O)c1sc(NC(=O)CN2CCCC2)c(C(=O)OCC)c1C | inconclusive [inhibitor, single point] | 
13 | Cc1ccccc1C(=O)OC1OC(=O)C(Cl)=C1N1CCOCC1 (stereo unspecified) |  | inactive: -5.13%
14 | CCOC(=O)COc1ccc2cc(C(=O)OCC)c(=O)oc2c1 | inconclusive [inhibitor, partial curve] | 
15 | N#C/C(=C(\O)c1ccco1)c1ccccn1 | active: 25.1 µM | 
16 | c1cnc2nc(-c3ccc4c(c3)OCO4)cn2c1 | inconclusive [inhibitor, single point] | 
17 | CCN1CCN(C(=S)NC(C)c2ccccc2)CC1 (stereo unspecified) | active: 18.9 µM | 
18 | O=C(O)c1cc2c(ccc3ccccc32)[nH]1 | inconclusive [inhibitor, single point] | 
19 | O=C(NNc1ccc([N+](=O)[O-])cc1)C1CC1c1ccccc1 (stereo unspecified) | active: 10 µM | 
20 | NC(=S)N/N=C/c1ccc(-c2ccc(Cl)c(Cl)c2)o1 | inconclusive [inhibitor, partial curve] | 
21 | COc1cc([N+](=O)[O-])ccc1N/C=C/C(=O)c1cccs1 | inconclusive [inhibitor, partial curve] | 
